According to publication PMC10166177:
These are yes or no findings as the source states them, for the method shown. Binding seen in cells or lysates may run through a third protein. Some results given as binding are weak or reduced against the parent protein; the word gives no strength. Tags and fused reporters may be left off the sequences shown.

Molecular target: T1, Flag-tagged full-length RNPS1 (UniProt Q99M28)
T1 sequence: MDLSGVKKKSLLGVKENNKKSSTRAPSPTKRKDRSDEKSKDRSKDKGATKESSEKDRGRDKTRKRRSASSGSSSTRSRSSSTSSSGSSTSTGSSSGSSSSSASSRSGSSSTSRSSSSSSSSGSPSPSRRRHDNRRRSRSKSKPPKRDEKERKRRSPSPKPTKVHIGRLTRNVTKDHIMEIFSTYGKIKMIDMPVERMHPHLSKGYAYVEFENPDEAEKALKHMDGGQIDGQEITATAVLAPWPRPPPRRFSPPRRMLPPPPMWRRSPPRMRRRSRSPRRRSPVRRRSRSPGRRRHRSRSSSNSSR
Assay: co-IP; HEK293 cells (legend; the text says N2a cells) expressing HA-SNIP1 and/or Flag-tagged full-length or domain-truncated RNPS1

binding: binds
B1: HA-SNIP1 (protein, UniProt Q8BIZ6 1-383)
chain: MKAGKSERERSGRRRHRSGDALTTVVVKQERLSPEPVAHRRPDAPAASLSPPAAEPGHSGHRGSRARSPAKKKSKSSGRRSKSPRTKRSQSPHYPMVKVKQEREDHPRRGREDRQHREPSEQEHRRARNSERDRHRGHSRQGRSSDERPVSGQDRDRDSQNLQAQEEERDFHNARRREHRQQNESAGSEAQEVIPRPAGNRSKEVPVKEKPSFELSGALLEDTNTFRGVVIKYSEPPEARIPKKRWRLYPFKNDEVLPVMYIHRQSAYLLGRHRRIADIPIDHPSCSKQHAVFQYRLVEYTRADGTVGRRVKPYIIDLGSGNGTFLNNKRIEPQRYYELKEKDVLKFGFSSREYVLLHESSDTSELDRKEDEDDEEEEMVSDS
